Laboratory results reported in the supplement of paper PMC12217912.
This is one part of the list. The full chains were built here from the parent and the listed change. Values near 0.05 are background.

B1: TEV protease; numbered along this chain (parent)
chain: MGESLFKGPRDYNPISSSICHLTNESDGHTTSLYGIGFGPFIITNKHLFRRNNGTLVVQSLHGVFKVKDTTTLQQHLVDGRDMIIIRMPKDFPPFPQKLKFREPQREERICLVTTNFQTKSMSSMVSDTSCTFPSGDGIFWKHWIQTKDGQCGSPLVSTRDGFIVGIHSASNFTNTNNYFTSVPKNFMELLTNQEAQQWVSGWRLNADSVLWGGHKVFMVKPEEPFQPVKEATQL

Variants of: B1
Test: raw area under fraction-flipped curve 0-4 h after induction (AUC4h, not background-subtracted), DNA-recorder readout of cleavage of the substrate (dimensionless); higher = more cleavage of the substrate by the protease variant
Settings: temperature: 34 °C; time window: 0-4 h after rhamnose induction
Experimental: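 In vivo DNA recorder in E. coli TOP10(DE3) ΔrhaA at 34 °C. Each TEVp single-site mutant (parent TEVp 0) is paired with a single-site variant of the 7-mer TEVs (canonical ENLYFQ|S). The substrate sits between flexible linkers in a Bxb1-sfGFP-TEVs-SsrA fusion, so cleavage stabilises Bxb1 and speeds flipping of a recombination array, read by NGS. The value is the raw area under the fraction-flipped curve over 0-4 h after rhamnose induction (AUC4h), with ≥20 reads per time point. It is not background-subtracted; inactive controls average about 0.047.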
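Also: Bxb1 expression induced with 0.2% (w/v) L-rhamnose at OD600 near 0.5, cultures sampled hourly, flipped fraction per protease–substrate barcode pair counted by paired-end Illumina sequencing.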

| Variant | area with substrate ANLYFQS | area with substrate CNLYFQS | area with substrate DNLYFQS | area with substrate FNLYFQS | area with substrate HNLYFQS | area with substrate KNLYFQS | area with substrate LNLYFQS | area with substrate MNLYFQS | area with substrate PNLYFQS | area with substrate SNLYFQS | area with substrate TNLYFQS | area with substrate VNLYFQS | area with substrate WNLYFQS | area with substrate YNLYFQS | area with substrate INLYFQS | area with substrate QNLYFQS | area with substrate NNLYFQS | area with substrate GNLYFQS | area with substrate RNLYFQS |
| --- | --- | --- | --- | --- | --- | --- | --- | --- | --- | --- | --- | --- | --- | --- | --- | --- | --- | --- | --- |
| H21N | 0.0622 | 0.0529 | 0.0826 | 0.0552 | 0.0652 | 0.071 | 0.0535 | 0.046 | 0.0756 | 0.0464 | 0.0601 | 0.0555 | 0.0629 | 0.0583 |  |  |  |  |  |
| H21Y | 0.0551 | 0.0643 | 0.0771 |  | 0.0643 |  | 0.0636 |  | 0.0582 |  | 0.0576 | 0.0581 | 0.066 | 0.0572 | 0.0784 | 0.053 |  |  |  |
| G2M | 0.0718 | 0.0655 | 0.0879 | 0.0513 |  | 0.0707 | 0.0785 |  | 0.0771 | 0.0752 | 0.054 |  | 0.052 |  |  |  |  |  |  |
| F6H | 0.0638 | 0.0678 | 0.0863 | 0.0708 | 0.101 | 0.0618 |  |  |  | 0.0575 | 0.056 | 0.0446 | 0.0593 | 0.0545 |  |  | 0.0653 |  |  |
| P14C | 0.0524 | 0.0812 | 0.066 | 0.0667 | 0.0607 | 0.0648 | 0.0757 | 0.0716 | 0.0593 | 0.0596 | 0.0624 | 0.0502 | 0.0556 | 0.0681 | 0.0645 |  | 0.0562 | 0.0591 | 0.0715 |
| P14W | 0.0591 | 0.0646 | 0.0737 | 0.0501 | 0.0734 | 0.0597 | 0.0367 | 0.0691 | 0.0741 | 0.0511 | 0.0639 | 0.0739 | 0.0581 | 0.0696 | 0.067 |  | 0.0692 | 0.0367 |  |
| N13R | 0.0687 | 0.0736 | 0.0806 |  | 0.0659 |  | 0.0685 | 0.0661 | 0.075 | 0.0605 | 0.0569 |  | 0.0594 | 0.0522 | 0.0759 |  | 0.0531 |  | 0.0553 |
| N13G | 0.0566 | 0.0906 | 0.0712 |  | 0.053 | 0.0515 | 0.0653 | 0.0667 | 0.0676 | 0.0635 | 0.0592 | 0.0798 | 0.0577 | 0.0617 | 0.0565 |  |  | 0.0658 |  |
| N13K | 0.0662 | 0.0565 | 0.0643 | 0.0547 | 0.0565 | 0.0754 | 0.0646 |  | 0.0764 | 0.0598 | 0.0768 | 0.0577 | 0.0557 |  | 0.0463 |  | 0.0596 | 0.059 |  |
| L22W | 0.0649 | 0.0346 | 0.044 | 0.0396 | 0.0197 |  | 0.0471 |  | 0.0509 | 0.0386 |  |  | 0.0434 | 0.0376 |  |  | 0.0734 | 0.0497 |  |
| L22K | 0.0376 | 0.0228 | 0.0458 |  | 0.0464 | 0.0536 | 0.0549 | 0.0329 | 0.0487 |  | 0.0404 |  | 0.0506 | 0.0425 | 0.0375 |  |  | 0.0549 |  |
| L22V | 0.0408 | 0.0573 | 0.0697 | 0.0474 | 0.05 | 0.0506 | 0.0644 | 0.0612 | 0.0519 | 0.0656 | 0.0666 | 0.0696 | 0.0522 | 0.0567 | 0.0649 | 0.0657 |  | 0.0666 |  |
